The whole screen tested about 310,000 compounds, of which about 14,000 (4.5%) showed an effect of 50% or more. Effects have a minus sign here. Some of the results follow.
Molecular target: human ether-à-go-go-related gene (hERG) potassium channel (human, UniProt Q12809)
Assay: primary screen, population patch clamp on CHO cells stably expressing hERG
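Further: peak tail current of the secondary pulse compared with the same well before compound.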

Sequence of human ether-à-go-go-related gene (hERG) potassium channel (Q12809 whole entry, looked up): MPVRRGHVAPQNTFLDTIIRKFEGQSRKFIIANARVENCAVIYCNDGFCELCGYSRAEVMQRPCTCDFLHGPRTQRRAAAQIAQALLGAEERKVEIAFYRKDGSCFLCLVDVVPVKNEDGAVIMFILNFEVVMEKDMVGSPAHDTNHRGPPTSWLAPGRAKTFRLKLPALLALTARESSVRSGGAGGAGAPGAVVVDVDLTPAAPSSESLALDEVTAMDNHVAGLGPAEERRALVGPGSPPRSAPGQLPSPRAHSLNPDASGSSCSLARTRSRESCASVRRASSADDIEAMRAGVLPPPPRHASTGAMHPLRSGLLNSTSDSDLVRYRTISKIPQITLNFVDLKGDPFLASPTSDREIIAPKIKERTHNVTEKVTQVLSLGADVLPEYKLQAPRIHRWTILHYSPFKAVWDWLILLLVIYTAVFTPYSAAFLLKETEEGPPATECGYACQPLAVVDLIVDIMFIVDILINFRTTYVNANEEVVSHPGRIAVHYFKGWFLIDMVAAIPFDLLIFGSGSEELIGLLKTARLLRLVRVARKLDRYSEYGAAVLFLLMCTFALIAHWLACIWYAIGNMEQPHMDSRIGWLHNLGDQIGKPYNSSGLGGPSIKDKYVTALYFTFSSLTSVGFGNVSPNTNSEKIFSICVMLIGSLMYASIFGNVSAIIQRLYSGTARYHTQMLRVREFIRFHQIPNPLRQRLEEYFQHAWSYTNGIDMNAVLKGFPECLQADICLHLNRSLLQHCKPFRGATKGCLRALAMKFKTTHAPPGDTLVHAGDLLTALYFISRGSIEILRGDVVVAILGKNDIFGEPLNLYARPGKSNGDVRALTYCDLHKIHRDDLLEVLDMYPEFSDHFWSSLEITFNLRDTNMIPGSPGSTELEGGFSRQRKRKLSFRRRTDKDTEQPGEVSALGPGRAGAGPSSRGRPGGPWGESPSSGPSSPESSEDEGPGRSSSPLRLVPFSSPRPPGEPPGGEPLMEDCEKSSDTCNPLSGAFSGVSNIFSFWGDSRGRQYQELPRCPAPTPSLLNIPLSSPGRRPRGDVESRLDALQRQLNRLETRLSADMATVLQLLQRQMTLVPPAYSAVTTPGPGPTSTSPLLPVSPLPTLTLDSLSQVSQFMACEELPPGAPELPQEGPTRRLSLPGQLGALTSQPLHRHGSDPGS

Compound | hERG current change (%, negative = inhibition) at 10uM
COc1ccc(NC(=O)CCCn2cnc3ccccc3c2=O)c(OC)c1 | -26.4%
COc1ccc(C(=O)O)cc1S(=O)(=O)Nc1cc(Cl)ccc1N1CCOCC1 | 13%
CC(C)CCn1c(Sc2nc3ccccc3s2)nc2c1c(=O)[nH]c(=O)n2C | -0.292%
Cc1ccc(C(=O)NN2C(=O)C3C4c5ccccc5C(c5ccccc54)C3C2=O)cc1 (centres unmarked) | -0.0938%
O=C(CC1COc2ccccc2O1)NC1CCCCC1 (centres unmarked) | 5.61%
COc1cc(C(C)=O)ccc1Oc1ncccn1 | 8.3%
Cc1cccc2nc(C(=O)Nc3cccc(C(=O)NC4CC4)c3)cn12 | 7.27%
O=C(NCCN1CCCCC1)Nc1ccc(Cl)cc1 | -33.7%
O=C(NN1CCCCC1)c1ccc(COc2ccc(Cl)cc2)cc1 | -6.27%
CCc1ccc(OCC(=O)N(C)C)c(Br)c1 | -7.33%
COc1ccc2c(c1)c(C(=O)OCCN(C)C)c(C)n2C.Cl | -1.4%
CCCCN1C(=S)NC[C@@H]1C(C)CC (some centres unmarked) | 12.9%
Nc1c(C(=O)NCCN2CCOCC2)c2nc3ccccc3nc2n1Cc1ccccc1 | 1.38%
CC1CC(C)CN(S(=O)(=O)N2CCCC(C(=O)NCCCN3CCCCC3C)C2)C1 (centres unmarked) | -9.36%
O=C(/C=C/c1ccc2c(c1)OCO2)Nc1c(C(=O)O)[nH]c2ccccc12 | 7.78%
O=C(Cn1cc2c(n1)CCCC2)Nc1ccccc1Cl | 9.62%
CCN1CCN(S(=O)(=O)CC2(C)C3CCC2(C)C(=O)C3Br)CC1 (centres unmarked) | 21.7%
O=c1c2c(-c3ccc(Cl)cc3)csc2ncn1/N=C/c1cccc([N+](=O)[O-])c1O | 3.44%
COc1ccc(NC(=O)C(C)SCc2ccccc2)cc1 (centres unmarked) | 8.06%
COC(=O)c1ccccc1NC(=O)c1ccccc1N(C)S(=O)(=O)c1ccccc1 | 6.83%
CCOC(=O)c1sc(-c2ccc(F)cc2)cc1NC(=O)Nc1ccccc1OC | -8.5%
Cc1oc(C(=O)O)cc1CSc1nnc(-c2ccccc2)n1C | -7.82%
O=C(Cc1cccs1)N1CCN(S(=O)(=O)c2ccc(Br)cc2)CC1 | -2.75%

Compound | hERG current change (%, negative = inhibition) at 10uM
Cc1cccc(Cn2c(N3CCN(c4ccccc4)CC3)nc3c2c(=O)n(C)c(=O)n3C)c1 | -36%
Cc1ccc(-n2c(SC3CCOC3=O)nc3ccccc3c2=O)cc1 (centres unmarked) | -9.48%
Cc1ccc(CNC(=O)CNC(=O)[C@@H]2Cc3ccccc3CN2C(=O)OC(C)(C)C)cc1 | -14.8%
COC(=O)N/N=C/c1ccc(-c2ccc(Cl)c(Cl)c2)o1 | 0.0538%
CCNCc1ccc(OCc2cccs2)c(OCC)c1 | -1.95%
CC(=O)Nc1ccc(NC(=O)COc2cc(O)c3c(c2)OC(C)(C)CC3=O)cc1 | -15.8%
Cc1nc(SCC(=O)c2cc3ccccc3oc2=O)c(C#N)c(-c2ccccc2)c1C(=O)Nc1ccccc1 | -1.93%
COc1ccc(OC)c(C(=O)COC(=O)C(CCSC)NC(=O)COc2ccccc2)c1 (centres unmarked) | -26.5%
CCN(C(=O)COn1nnc2ccc(S(=O)(=O)N(C)C)cc21)C1CCS(=O)(=O)C1 (centres unmarked) | 1.39%
CCOC(=O)c1c(-c2ccc(C)cc2)csc1NC(=S)NC(=O)c1ccccc1 | 2.84%
CC(C)c1cccc(O)c(=O)c1 | -1.62%
CCc1cccc(C)c1NC(=O)C1CCCN(S(C)(=O)=O)C1 (centres unmarked) | 23.6%
CSc1cccc(NC(=O)CSc2ccc(Cl)cc2)c1 | 14.1%
Cc1ccccc1OCCC(=O)Nc1ccc(Cl)cc1F | -9.38%
Cc1nc2cc(C(F)(F)F)ccc2n1CCNc1nc(-c2ccc([N+](=O)[O-])c(Cl)c2)cs1 | -4.07%
Cc1ccc2nc(C)cc(C(=O)N/N=C/c3ccncc3)c2c1 | 1.94%
Cc1nnc(SCC(=O)Nn2cnnc2)s1 | -11.6%
CC(OC(=O)c1ccc2ncsc2c1)C(=O)N1CCCC1 (centres unmarked) | -56.9%
COc1ccc(N(CC(=O)N/N=C/c2cccs2)S(=O)(=O)c2ccccc2)cc1 | -4.75%
Cn1c(=O)c2c(nc(NCc3ccc4c(c3)OCO4)n2Cc2ccccc2)n(C)c1=O | -5.22%
CC(C)Sc1nc2c(c(=O)[nH]c(=O)n2C)n1C | -1.58%
Cc1ccc(C)c(/C=C/C(=O)c2ccccc(=O)c2O)c1 | -50.7%
Brc1cc2c(cc1COc1ccc(-c3nn[nH]n3)cc1)OCO2 | 11.2%

Compound | hERG current change (%, negative = inhibition) at 10uM
CCOc1ccccc1C(=O)OCC(=O)NCCc1ccc(OC)cc1 | -43.1%
Cc1ccc(NC(=O)COc2ccc(C3SCCS3)cc2)cc1 | 5.06%
CC(Sc1nc2scc(-c3ccccc3)c2c(=O)[nH]1)C(=O)NC(N)=O (centres unmarked) | 2.33%
CCOC(=O)c1[nH]c2ccc(OC)cc2c1NC(=O)CCN1CCC(C)CC1 | -22.8%
CN(C)S(=O)(=O)c1ccc(C(=O)Nc2cc(=O)n(C)c(=O)n2C)cc1 | 23.9%
Cc1ccc(/C=C/C(=O)NN2CCN(C)CC2)cc1 | 10.3%
CCOC(=O)C1CCN(S(=O)(=O)c2ccc(NC(=O)OC)cc2)CC1 | -56.5%
CCCC1C(=O)Nc2ccccc2N1C(=O)c1cccc(C)c1 (centres unmarked) | 2.13%
COc1ccc(N2CCN(C(=O)Cc3coc4cc(C)ccc34)CC2)cc1 | 9.02%
CC1=C(C(=O)OC(C)C)C(C)NC(=O)N1 (centres unmarked) | -24%
C=C(C)C1CC=C(C)/C(=N/NC(=O)COc2ccc(Cl)cc2)C1 (centres unmarked) | 13%
CCOc1ccc2ccccc2c1/C=N/NC(=O)CNC(=O)c1ccccc1F | 6.21%
O=C(O)c1ccccc1C(=O)c1ccc(N2CCOCC2)c([N+](=O)[O-])c1 | 8.12%
O=C1COc2ccc(-c3csc(NCCc4ccccc4)n3)cc2N1 | 0.389%
COc1cc(C(=S)N2CCCC2)cc(OC)c1OS(=O)(=O)c1ccc(NC(C)=O)cc1 | 3.19%
Cn1c(-c2ccccc2)cnc1NCc1ccccc1 | -21.3%
COc1ccc(C(=O)Nc2ccc3nc(C)c(C)nc3c2)cc1 | 2.32%
CN(CC(=O)N1CCCCCC1)S(=O)(=O)c1ccc(F)cc1 | 7.32%
Cc1ccc(C(=O)C(OC(=O)COc2ccccc2C)c2ccccc2)cc1 (centres unmarked) | -0.792%
O=C(NNC(=S)Nc1ccccc1)c1cccnc1 | 15.9%
O=C(Nc1nnc(C2CCCCC2)s1)c1cccs1 | 17.9%
O=C1C2C(c3ccccc3)C=CC(c3ccccc3)C2C(=O)N1CCCO (centres unmarked) | -7.56%
Cc1ccc(NC(=O)COC(=O)C2CC2)cc1Cl | 2.83%

Compound | hERG current change (%, negative = inhibition) at 10uM
CCOc1ccc(CNC(=O)C2CCN(c3nn4c(=O)cc(C)nc4s3)CC2)cc1 | -45.8%
COc1ccc(N/C(N)=N/c2nc(CSc3ccc(Cl)cc3)cc(=O)[nH]2)cc1 | 17.5%
CCOC(=O)c1[nH]c(C)c(C(=O)N2CCN(c3cccc(Cl)c3)CC2)c1C | -13.8%
Cc1ccc(-c2nnn(CC(=O)N(CC(=O)NC3CCCCC3)c3cnc4ccccc4c3)n2)o1 | -25.5%
COc1ccc(S(=O)(=O)Nc2ccc(C(F)(F)F)cc2)cc1OC | -12.4%
Cl.O=S(=O)(c1ccc2ccccc2c1)N1CCN(CCO)CC1 | 23.5%
c1ccc(Cn2nnnc2C(c2ccccn2)N2CCOCC2)cc1 (centres unmarked) | 13.6%
CSCC[C@H](NC(=O)OC(C)(C)C)C(=O)N/N=C/c1cccc2cccnc12 | -28%
CC1CCCCC1NC(=O)CCNS(=O)(=O)c1cc(Br)cnc1N (centres unmarked) | 7.41%
Cl.c1ccc(-n2ncc3c(NCCN4CCCCC4)ncnc32)cc1 | -15.7%
Cc1cc(CNCc2c(C(=O)N3CCCCCCC3)nc3ccc(Cl)cn23)nn1C | -18.7%
COc1ccccc1OCc1ccc(C(=O)N2CCN3CCCC3C2)cc1 (centres unmarked) | -9.75%
CCSc1nnc(NC(=O)CSC2=NCCS2)s1 | 12.4%
Cn1c(O)c(/C=C2\C=Nc3ccc(Br)cc32)c(=O)n(C)c1=O | -5.57%
COc1ccc(N2C(=O)C3CCCN3C2c2ccc(C)o2)cc1 (centres unmarked) | 0.588%
CC(C)(C)OC(=O)NCCCC[C@H](NC(=O)c1[nH]cnc1C(=O)Nc1ccc(Cl)cc1)C(=O)OC(C)(C)C | 22.1%
O=C1CCCN1c1ccc(C(=O)N(Cc2nnc(-c3ccccc3Cl)o2)C2CC2)cc1 | -6.33%
CC(=O)c1ccccc1NC(=O)Cn1c(=O)cnc2ccccc21 | 14.6%
CCOC(=O)c1c(NS(=O)(=O)c2cccc(OC)c2)sc2c1CCC2 | -11.5%
COc1cccc(CN2CCC(Oc3ccc(C(=O)N4CCCCC4)cc3)CC2)c1 | -25.3%
